Source: publication PMC4336329 (PLoS ONE, 2015)
The whole screen tested about 310,000 compounds, of which about 2,200 (0.71%) showed an effect of 50% or more. Effects have a minus sign here. The list shows a part of the results.

Biological target: human ether-à-go-go-related gene (hERG) potassium channel (human, UniProt Q12809)
Assay: primary screen, population patch clamp on CHO cells stably expressing hERG

human ether-à-go-go-related gene (hERG) potassium channel, sequence (Q12809 whole entry, looked up): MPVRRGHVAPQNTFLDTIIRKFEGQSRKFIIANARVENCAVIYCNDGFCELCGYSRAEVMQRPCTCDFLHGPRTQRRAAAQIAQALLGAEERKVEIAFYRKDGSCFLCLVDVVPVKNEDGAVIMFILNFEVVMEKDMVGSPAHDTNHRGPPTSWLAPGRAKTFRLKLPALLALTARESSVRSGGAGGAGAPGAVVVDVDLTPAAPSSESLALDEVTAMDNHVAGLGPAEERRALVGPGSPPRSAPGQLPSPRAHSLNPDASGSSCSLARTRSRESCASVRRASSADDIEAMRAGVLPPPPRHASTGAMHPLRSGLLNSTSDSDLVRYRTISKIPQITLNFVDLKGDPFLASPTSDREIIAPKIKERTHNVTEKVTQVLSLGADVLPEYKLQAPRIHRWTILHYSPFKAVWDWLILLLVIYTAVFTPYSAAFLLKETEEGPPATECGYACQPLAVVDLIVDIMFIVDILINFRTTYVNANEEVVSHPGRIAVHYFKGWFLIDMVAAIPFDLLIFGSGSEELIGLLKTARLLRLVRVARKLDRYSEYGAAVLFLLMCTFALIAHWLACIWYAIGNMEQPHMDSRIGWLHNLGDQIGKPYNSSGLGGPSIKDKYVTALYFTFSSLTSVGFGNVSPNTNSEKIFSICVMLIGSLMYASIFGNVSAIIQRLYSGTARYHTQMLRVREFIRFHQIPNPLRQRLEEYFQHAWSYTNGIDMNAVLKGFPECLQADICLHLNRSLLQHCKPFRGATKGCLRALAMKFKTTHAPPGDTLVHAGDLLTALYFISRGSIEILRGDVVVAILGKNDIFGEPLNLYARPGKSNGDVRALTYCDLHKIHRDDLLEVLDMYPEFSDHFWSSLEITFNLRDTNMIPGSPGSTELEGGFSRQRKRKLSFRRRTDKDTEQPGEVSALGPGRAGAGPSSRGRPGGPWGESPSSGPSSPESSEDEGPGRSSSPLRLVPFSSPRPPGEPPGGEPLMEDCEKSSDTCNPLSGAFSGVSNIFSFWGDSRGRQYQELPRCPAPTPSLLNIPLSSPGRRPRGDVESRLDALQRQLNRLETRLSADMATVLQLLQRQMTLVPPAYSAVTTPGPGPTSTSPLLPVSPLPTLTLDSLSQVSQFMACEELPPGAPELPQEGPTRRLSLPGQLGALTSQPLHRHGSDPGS

SMILES | hERG current change (%, negative = inhibition) at 1uM [%]
O=C1c2ccccc2C(O)(c2ccccc2)N1CCc1ccccc1 (centres unmarked) | 8.98
CCn1c2ccccc2c2cc(NC(=O)CCCN3C(=O)CCC3=O)ccc21 | 10.7
CC(NC(=O)/C(=C\c1ccco1)NC(=O)c1ccccc1Br)C(=O)O (centres unmarked) | 13.4
CC(C)[C@@H]1COC(c2cccc(C3=N[C@H](C(C)C)CO3)n2)=N1 | 11.1
Cn1c(-c2cccc([N+](=O)[O-])c2)[n+](C)c2ccccc21.[Cl-] | 12.7
COc1ccc(NC(=O)CN2C(=O)NC(C)(c3ccc(C)cc3)C2=O)c([N+](=O)[O-])c1 (centres unmarked) | 5.57
O=C(NCCCN1CCOCC1)c1ccc(Cl)cc1[N+](=O)[O-] | 10.7
Cc1ccccc1NC(=S)N(CCN1CCCCC1)Cc1ccco1 | 2.1
CN(c1ccccc1)S(=O)(=O)c1cccc(NC(=O)COc2ccccc2)c1 | 9.45
COC(=O)c1c(NC(=O)C2CCCCC2)sc2c1CCN(C(C)C)C2.Cl | 11.3
CC(NCc1ccncc1)C12CC3CC(CC(C3)C1)C2.Cl (centres unmarked) | 12.6
Cc1ccc2cc(NC(=O)CC(CC(=O)O)c3ccccc3)ccc2n1 (centres unmarked) | 5.28
Cc1cccc2cc(C#N)c(N3CCN(C)CC3)nc12 | -9.93
CCCCn1c(SCc2nc3ccccc3s2)nc2cc(S(N)(=O)=O)ccc21 | -8.76
O=C(Nc1ncc(Cc2cccc(Cl)c2Cl)s1)c1ccc([N+](=O)[O-])cc1 | -6.49
C/C(=N\NC(=O)c1ccc(C)cc1)C1C(=O)c2ccccc2C1=O | 12.1
O=C(Nc1nnc(C2CC2)o1)c1ccc(S(=O)(=O)N2CCCCC2)cc1 | 14.2
COc1ccc(/C=C/C(=O)N(C)C2(C)CCS(=O)(=O)C2)cc1 (centres unmarked) | 6.09
O=[N+]([O-])c1cc(Cl)ccc1Sc1ccccn1 | 12.6
CC(C)CCN1C(=O)c2ccc(C(=O)Nc3cccc(S(N)(=O)=O)c3)cc2C1=O | 9.51
COc1ccc(-c2nc(NC(=O)CSc3nnc4ccccn34)ns2)cc1 | 8.6
CCOc1ncccc1C(=O)OCC(=O)Nc1c(C)cc(C)cc1C | 8.45
CCOC(=O)c1c(C)n(C)c2ccc(O)c(CN3CCN(C)CC3)c12 | 4.88

SMILES | hERG current change (%, negative = inhibition) at 1uM [%]
COc1ccc(C(=O)Oc2cccnc2)cc1 | 6.22
Cc1ccc(NC(=O)CC2S/C(=N/N=C3/NC(=O)CS3)NC2=O)cc1 (centres unmarked) | 14.6
Cc1cccc(OCC(O)CN2CCN(c3ccccn3)CC2)c1C.Cl (centres unmarked) | 3.38
O=C(CSc1nnc(-c2cccs2)n1-c1ccccc1)c1ccc2c(c1)OCCO2 | 8.47
CN(C)c1ccc(CNC(=O)CCS(=O)(=O)c2ccc3c(c2)oc(=O)n3C)cc1 | 15.5
Cc1ccc(CN2CCN(/N=C/c3cccs3)CC2)cc1 | 4.22
CC(=O)NC(=S)Nc1ccc(-c2nc3ccc(C)cc3s2)cc1 | 11.9
NS(=O)(=O)c1cccc(NC(=O)COC(=O)/C(=C/c2cccs2)c2cccs2)c1 | 5.57
CC(=O)N(C)c1ccc(NS(=O)(=O)Cc2ccccc2)cc1 | 3.25
O=c1[nH]c(/C=C/c2ccccc2)c([N+](=O)[O-])c(=O)[nH]1 | 2.27
CN1CCC(=NNC(=O)c2ccco2)CC1 | -2.11
CC(=O)Nc1nc2c(s1)CCc1ccccc1-2 | 18.9
Cc1ccc(OCC(=O)Nc2ccccc2F)cc1 | 9.1
CCCNC(=O)NC1CCCc2ccccc21 (centres unmarked) | 6.62
NNC(=O)c1cnn(-c2ccccc2)c1-n1cccc1 | 8.5
CC(C)CN(C(=O)CSc1nc2ccccc2o1)c1c(N)n(Cc2ccccc2)c(=O)[nH]c1=O | 8.31
CCCCCNC(=O)N[C@H](C(=O)O)C(C)C | 1.83
CC(C)CC(=O)c1c[nH]c(C(=O)NCc2ccccc2)c1 | 7.97
COc1ccccc1P(=O)(Cc1ccccc1[N+](=O)[O-])c1ccccc1 (centres unmarked) | 8.3
COc1ccc(CCNC(=O)C2CCN(S(=O)(=O)c3ccc(C)cc3)CC2)cc1 | 5.93
O=C(C1CCCC1)N1CCN=C1SCc1cccc([N+](=O)[O-])c1 | 2.37
Cc1cc(C)c(C)c(S(=O)(=O)N2CCN(C(=O)CCc3nc4ccccc4c(=O)[nH]3)CC2)c1C | 10.8
COc1cccc(N2CCN(c3ncnc4c3[nH]c3ccc(F)cc34)CC2C)c1 (centres unmarked) | 2.12

SMILES | hERG current change (%, negative = inhibition) at 1uM [%]
Cc1noc(C)c1COc1ccc(C(=O)N2CCN(c3ccccc3O)CC2)cc1 | 15.3
CCOc1nc(NCCO)nc(Nc2ccccc2F)n1 | 19.2
[O-]/C(=C(\C(=S)NCc1ccc2c(c1)OCO2)[n+]1ccccc1)c1ccc(Cl)s1 | 17.3
Cc1ccc(C(=O)N2CCCC2)cc1S(=O)(=O)Nc1ccccc1 | -8.52
Cc1ncoc1C(=O)N1CCCC(C(=O)c2ccc(-c3ccccc3)c(F)c2)C1 (centres unmarked) | 4.05
O=C(Nc1nc2ccccc2[nH]1)c1ccc(F)c(S(=O)(=O)N2CCOCC2)c1 | -14.4
O=C(NCc1cccnc1)c1ccc(COc2ccccc2Br)o1 | 8.81
Cc1ccc(N/N=C2/CCCNC2=O)cc1 | 16.9
CCCCCc1ccc(CC(=O)O)cc1 | 14.8
CCCCc1c(C)nc2ccc(C(=O)OCC)cc2c1Cl | 15.5
CCCc1nc2oc3c(=O)[nH]cnc3c2c2c1COC(C)(C)C2 | 12.8
Cc1cc(C)cc(N(CCC#N)C(=O)COC(=O)C2=COCCO2)c1 | 7.44
CCO[C@@H]1OC(C(=O)Nc2ccccc2)=C[C@H](C)[C@H]1CCCO | -3.86
CC(=O)N1N=C(c2ccccc2)CC1c1cccc([N+](=O)[O-])c1 (centres unmarked) | 11.1
O=C(Nc1ccc(N=Nc2ccccc2)cc1)c1ccc(Cl)cc1Cl | 6.74
COC(=O)c1ccsc1NC(=O)CSc1nnnn1-c1ccccc1SC | -4.16
O=C(NNC(=O)c1cc(F)c(F)cc1Cl)c1ccc(NS(=O)(=O)c2cccs2)cc1 | 13.9
CC(Oc1cc(Cl)ccc1Cl)C(=O)N/N=C\c1ccnn1C (centres unmarked) | 16.6
COc1ccc(CNCc2cc(OC)ccc2OC)cc1.O=C(O)C(=O)O | -6.85
O=[N+]([O-])c1ccc(CN2C=NS(=O)(=O)c3ccccc32)cc1 | -2.86
O=C(Cc1ccccc1)NNC1=NS(=O)(=O)c2ccccc21 | 10.2
O=C1CCCN1c1ncc(S(=O)(=O)c2ccc([N+](=O)[O-])cc2)s1 | 12.1
O=C(CNCc1ccccc1)Nc1ccc(Cl)cc1 | 10.7

SMILES | hERG current change (%, negative = inhibition) at 1uM [%]
COC(=O)C1CCN(c2cc(=O)n(C3CCCCC3)c(=O)[nH]2)CC1 | -0.0859
CCc1ccc(CNCCSc2nnnn2C)cc1.Cl | 6.5
CC(O)Cn1cnc2c1c(=O)n(C)c(=O)n2C (centres unmarked) | -2.32
O=C(COC(=O)c1cccc(S(=O)(=O)N2CCc3ccccc32)c1)NC1CCS(=O)(=O)C1 (centres unmarked) | 6.17
CCOc1ccccc1NC(=O)CSc1nnnn1Cc1ccccc1 | -15.2
CCc1nnc(NC(=O)c2ccc(S(=O)(=O)N(CCOC)CCOC)cc2)o1 | 8.69
O=C(NC1CCCC1)c1ccc(CSCc2ccccc2F)o1 | -12.9
COc1ccc(CCn2c(O)c(C=NCc3cccnc3)c(=O)[nH]c2=O)cc1OC | 9.37
CCOc1ccc(S(=O)(=O)Nc2ccc(C(=O)N(C)CC(=O)Nc3ccc(OC)cc3)cc2)cc1 | 17.2
O=C1NC(c2ccc(Br)cc2)Nc2ccccc21 (centres unmarked) | 11.2
O=C(COc1ccccc1)Nc1cccc(-c2cn3cccnc3n2)c1 | 6.7
Cc1ccccc1C(=O)Nc1ccnn1C1CCN(C(=O)C2CCOC2)CC1 (centres unmarked) | -2.54
Cc1cccc(NC(=S)N(C)C)c1C | -3.81
COC(=O)[C@H]1C[C@@H]1[C@H](NS(=O)(=O)c1ccc2ccccc2c1)c1ccccc1 | 11.4
Cc1cc(C)c(S(=O)(=O)NCc2ccc3c(c2)OCO3)c(C)c1 | 14.5
Nn1c(SCC(=O)NC(=O)NCc2ccco2)nnc1-c1ccc(OC(F)F)cc1 | -18.8
C#CCn1cc(/C=N/NC(=O)COc2cccc3cccnc23)c2ccccc21 | 15.4
Cc1cc(=O)[nH]c(SCc2cccc3cccnc23)n1 | 10.7
Cc1ccc(SCCC(=O)Nc2ccc(Br)c(C)c2)cc1 | 15.3
COc1ccc(N=CC2=C(O)c3ccccc3C2=O)c(OC)c1 | 10.9
